Test results from PubChem BioAssay AID686978 (National Center for Advancing Translational Sciences (NCATS), 2013).
Where “and” joins values, the source holds several entries; their conditions need not be identical. Equal values may be shown once. About 64,000 (15%) of roughly 420,000 compounds were called active. Inconclusive results, whose numbers are uncertain, are shown with a selection of clear calls. Calls come from the whole dose curve; as a rule, active = well fitted inhibition curve with a large enough effect; inconclusive = small, poorly fitted or top-dose-only effect; inactive = flat fitted curve, though single readings scatter. Potencies beside an inconclusive call are fits to weak or partial responses and may not hold up.

Test: qHTS for Inhibitors of human tyrosyl-DNA phosphodiesterase 1 (TDP1): qHTS in cells in absence of CPT; note: nearly all actives have a fitted effect of over 55% in size
Details: DT40 Tdp1-/- hTDP1 cells, no CPT, ATP luminescence, 48 h; activity change, negative = growth inhibition: at 46.2 µM (top of the series) unless noted
How it was run: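 Chicken DT40 Tdp1-/- cells complemented with human TDP1, screened without camptothecin (DMSO vehicle only), 400 cells/well. Compounds pin-transferred, cells incubated at 37 °C for at least 48 hr. Growth read as ATP-dependent luminescence (CellTiter-Glo, 30 min at RT).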
% is set by controls: 0 for no effect and ±100 for the full control effect; potency is the fitted concentration of half-maximal effect; tags give direction and shape of the fitted curve.

Q: With O=C(CCCN1CCC2(CC1)C(=O)NCN2c1ccccc1)c1ccc(F)cc1 as the compound, how does the Potency read?
A: inconclusive: 29.9 µM [inhibitor, partial curve, poor fit] and inconclusive: 21.1 µM [inhibitor, single point]

Q: With CC1CCN(C(=O)Cn2c3ccccc3c3nc4n(c(=O)c32)CCCS4)CC1 as the compound, how does the Potency read?
A: inconclusive: 29.1 µM [inhibitor, single point]

Q: Which Potency does the source give for Cc1c(C(=O)Nc2ccccc2Cl)oc2ccc(S(=O)(=O)N3CCCCC3)cc12 here?
A: active: 16.4 µM

Q: Which activity change, negative = growth inhibition does the source give for Cc1cc(C)nc(-n2c(C)nc3cc(Cl)ccc3c2=O)c1 here?
A: inconclusive: -42.5% [inhibitor]

Q: For Cc1cccc(C)c1-n1nnnc1C(c1cccs1)N1CCC2(CC1)C(=O)NCN2c1ccccc1 (centres undefined), which Potency is on record?
A: active: 14.6 µM

Q: Which “activity change, negative = growth inhibition” value does the source give for CN(C)C1(CNC(=O)c2cc(S(=O)(=O)N3CCOCC3)c(Cl)cc2Cl)CCCCC1 here?
A: inactive: 8.84%

Q: Which “activity change, negative = growth inhibition” value does the source give for Cc1ccc2c(c1)[C@]13CCCC[C@@H]1[C@H](C2)N(C)CC3 here?
A: inactive: -19.9%

Q: With Cc1nn(C)cc1/C=C1/CC2C3CC=C4CC(O)CCC4(C)C3CCC2(C)C1=O (centres undefined) as the compound, how does the Potency read?
A: inconclusive: 2.91 µM [inhibitor, partial curve, poor fit]

Q: With CCc1nccc2c1[nH]c1ccccc12 as the compound, how does the Potency read?
A: inconclusive: 14.6 µM [inhibitor, single point]

Q: With O=[N+]([O-])O[C@H]1CO[C@H]2[C@@H]1OC[C@H]2O[N+](=O)[O-] as the compound, how does the Potency read?
A: inactive

Q: Which Potency does the source give for O=C(COc1ccc(S(=O)(=O)N2CCCCC2)cc1)N1CCN(Cc2ccccc2)CC1 here?
A: inconclusive: 20.6 µM [inhibitor, single point]

Q: With COC(=O)C1=C(c2ccc(Cl)c(C(F)(F)F)c2)C[C@@H]2CC[C@H]1N2C(=O)N1CCC(O)(c2ccc(Cl)cc2)CC1 as the compound, how does the Potency read?
A: inconclusive: 25.9 µM [inhibitor, single point]

Q: Which Potency does the source give for COc1cccc(OC)c1CN1CCCC(C(=O)c2cccc(Cl)c2)C1 (centres undefined) here?
A: inconclusive: 23.1 µM [inhibitor, partial curve]

Q: For CCC(c1nnnn1C1CCCCC1)N1CCC2(CC1)C(=O)NCN2c1ccccc1 (centres undefined), which Potency is on record?
A: inconclusive: 18.4 µM [inhibitor, single point]

Q: Which Potency does the source give for Cc1ccc(-n2c(/C=C/c3cccc4ccccc34)nc3ccccc3c2=O)cc1 here?
A: active: 20.6 µM

Q: With COc1ccccc1/C=C1\C(=O)NC(=S)N(c2ccccc2)C1=O as the compound, how does the “activity change, negative = growth inhibition” value read?
A: inactive: 20.2%

Q: With COc1ccc2c3c1OC1[C@H](O)CCC4[C@@H](C2)N(C)CC[C@]314 (some centres undefined) as the compound, how does the “activity change, negative = growth inhibition” value read?
A: inactive: -5.76%

Q: For CCCNC(=O)N1[C@H]2CC[C@@H]1C(C(=O)OC)=C(c1cccc(C#N)c1)C2, which “activity change, negative = growth inhibition” value is on record?
A: inactive: -3.63%

Q: Which Potency does the source give for CCOC(=O)[C@]1(C#N)[C@@H]2C=CC(C(C)=O)=CN2[C@@H](C(N)=O)[C@@H]1c1ccsc1 here?
A: inconclusive: 20.6 µM [inhibitor, single point]
